Experimental data published in ChEMBL document CHEMBL4888484, “Replenishing the malaria drug discovery pipeline: Screening and hit evaluation of the MMV Hit Generation Library 1 (HGL1) against asexual blood stage Plasmodium falciparum ,using a nano luciferase reporter read-out” (2022).
Hit rate of the full screen: of about 150,000 compounds, about 540 (0.36%) showed an effect of 50% or more. Some of the results follow.

The compounds below were run on Plasmodium falciparum (assay: Primary screen in NF54 nanoGlo assay, in single point, at 2uM, 72h; a lower Z score goes with more inhibition). Settings: timepoint 72 hour.
Type: functional, Erythrocyte

| Structure (SMILES) | % Inhibition [%] | Z score |
| --- | --- | --- |
| c1ccc2oc(-c3ccc(Nc4nc(N5CCCC5)nc(N5CCOCC5)n4)cc3)nc2c1 | -2 | 0.22 |
| Cc1cc(C)n([C@@H](C)c2nc(-c3c(C)ncc4c3CCNC4)no2)n1 | -4 | 0.82 |
| O=C(Nc1ccc(F)cc1)[C@@H]1C[C@H](C(=O)N2CCCCC2)CN(Cc2c[nH]c3ccccc23)C1 | -20 | 2.29 |
| O=C(Nc1cc2ccccc2cc1NC(=O)c1ccco1)c1ccco1 | 4 | -0.57 |
| CC(C)[C@@]1(c2nc(-c3cccc(C(F)(F)F)n3)no2)CNC(=O)C1 | 9 | -1.31 |
| CN1CCN(C[C@@H]2OC[C@H](NC(=O)c3ccc(C(F)(F)F)cc3)[C@H]2O)CC1 | 3 | -0.46 |
| Cc1c(-c2nc(-c3ccccc3)c(-c3ccccc3)[nH]2)n(C)n(-c2ccccc2)c1=O | -5 | 0.86 |
| Cn1ncnc1CCNC(=O)CNc1ccccc1 | -6 | 0.57 |
| O=S(=O)(c1ccc2c(c1)CCC2)N1CCCO1 | -10 | 0.91 |
| COc1cc(NC(=O)c2ccc(C)nc2)ncn1 | -4 | 0.68 |
| Cc1ccc(NC(=O)C2CCN(S(=O)(=O)c3ccc4c(c3)CCCN4C(=O)C3CCC3)CC2)c(Cl)c1 | -9 | 1.7 |
| Cc1nn(-c2ccccc2Cl)c(O)c1C(c1ccsc1)c1c(C)nn(-c2ccccc2Cl)c1O | 6 | -0.74 |
| CCC(CO)(CO)NC(=O)c1cccn1C(C)C | -9 | 1.38 |
| CCN(CC(F)(F)F)C(=O)c1cc(S(=O)(=O)N(C)C)oc1C | -16 | 1.6 |
| COc1ccc(C2(C(=O)N3CC[C@H](C(=O)O)C3)CCCCC2)cc1OC | -1 | 0.14 |
| O=C1c2ccccc2C(=O)C1c1cc2ccccc2cn1 | -13 | 2.18 |
| O=C(c1ccc(F)cc1)c1ccc(OCc2nnc(-c3ccco3)o2)cc1 | -10 | 1.27 |
| Brc1cccc2c1CN(Cc1c[nH]cn1)CC2 | -10 | 1.61 |
| CCCCn1nc(CC2CCN(C)CC2)nc1CN1C[C@@H]2CC[C@H]1C2 | -13 | 1.18 |
| C[C@@H](Cn1cnc2ccccc2c1=O)NCc1cccc(CO)c1 | -13 | 1.93 |
| O=C(Nc1ccccc1F)N1CCCCC[C@@H]1CN1CCOCC1 | 1 | -0.15 |

| Structure (SMILES) | % Inhibition [%] | Z score |
| --- | --- | --- |
| C[C@](O)(CNC(=O)Cc1ccc(F)cc1)C1CC1 | -10 | 1.71 |
| Cn1c(NC(=O)c2ccc(F)cc2)c(-c2ccccn2)c(=O)c2ccccc21 | -12 | 1.54 |
| CC(C)CN(C1CCOCC1)C1CN(C(=O)Nc2ccccc2)C1 | -1 | 0.17 |
| C[C@H]1C(=O)NCCCN1C(=O)c1scnc1C(F)(F)F | -8 | 0.93 |
| CC(C)C[C@H]1COCCN1CCn1nc2ccccn2c1=O | -11 | 1.68 |
| CC(C)c1noc([C@@H]2CCCN2S(=O)(=O)c2ccc3c(c2)OCCO3)n1 | 2 | -0.45 |
| CCC(=O)Nc1ccc(Cl)cc1Cl | -14 | 1.89 |
| COc1ccc(C2CC2)cc1CNC(=O)c1cc2n(n1)CCO2 | -5 | 0.8 |
| Cc1cc(NC(=O)[C@H]2CCCN(S(=O)(=O)c3cccs3)C2)on1 | 3 | -0.39 |
| CC(C)Cn1ccnc1CN1C(=O)NC2(CC2)C1=O | 1 | -0.18 |
| Cn1cccc(C(=O)NC2(Cc3ccc(Cl)cc3)CC2)c1=O | -5 | 0.96 |
| Cc1nsc(N2CCN(Cc3ccn(C)n3)CC2)c1C#N | -9 | 1.18 |
| O=C1NCCCCCCN(S(=O)(=O)c2cccc(F)c2)[C@H]2CCC[C@@H]12 | -6 | 0.74 |
| Cc1cc(NC(=O)Nc2cc(C3CC3C)n[nH]2)ccn1 (centres undefined) | -15 | 3.05 |
| CN(c1ncnc2cccc(F)c12)[C@H](c1ccc(F)cc1)C1CC1 | -16 | 2.96 |
| CCn1c(C)cc(C(=O)CS(=O)(=O)Cc2ccc(F)cc2Cl)c1C | -5 | 0.89 |
| Cc1ccnc(N(C(=O)c2sccc2C)C(=O)c2sccc2C)c1 | 6 | -1.03 |
| Cn1cc([C@H]2CCCN(C(=O)CC3CCN(C(=O)OC(C)(C)C)CC3)C2)cn1 | -10 | 1.99 |
| CCN1CCCN(Cc2cc3cccnc3o2)CC1=O | -5 | 0.46 |
| O=C1O[C@H]2CN(C3CCCC3)C[C@H]2N1CCc1cccc(Cl)c1 | -13 | 1.15 |
| CC(=O)N1CCC(CNC(=O)OC(C)(C)C)CC1 | -8 | 1.06 |
